Data on 5 molecules can be found in PMC5021942.

Results are given in words; binding and its absence hold for the method and conditions named. For some of these results: In cells and extracts the contact can be indirect. Some binding calls cover weakened binding; strength is not graded here. For some of these results: Sequences can lack the tags named with a protein.

One test concerns the target T1, human HA-PAR6α (human) (UniProt Q9NPB6).
T1 sequence: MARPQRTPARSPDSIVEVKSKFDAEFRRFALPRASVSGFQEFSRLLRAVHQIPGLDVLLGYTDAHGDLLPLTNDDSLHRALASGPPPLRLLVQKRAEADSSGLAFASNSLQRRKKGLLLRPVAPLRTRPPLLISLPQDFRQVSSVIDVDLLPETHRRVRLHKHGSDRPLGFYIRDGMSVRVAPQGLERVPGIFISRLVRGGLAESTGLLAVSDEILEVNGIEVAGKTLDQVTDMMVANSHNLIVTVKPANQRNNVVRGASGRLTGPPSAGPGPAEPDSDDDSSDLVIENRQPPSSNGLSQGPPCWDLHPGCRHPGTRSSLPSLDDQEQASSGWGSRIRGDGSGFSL
The experiment in a line: co-IP; HEK cells transiently transfected with HA::PAR6α and/or human Hook2, lysed after one day; immunoprecipitation with mouse anti-HA or rat anti-Hook2, immunoblot with rabbit anti-Hook2 and anti-HA. In general terms: A western blot detects proteins with antibodies after separation by electrophoresis.

The target of test [1] is T2, GST-PAR6α Nter (1–133 amino acids) (human) (UniProt Q9NPB6).
T2 sequence: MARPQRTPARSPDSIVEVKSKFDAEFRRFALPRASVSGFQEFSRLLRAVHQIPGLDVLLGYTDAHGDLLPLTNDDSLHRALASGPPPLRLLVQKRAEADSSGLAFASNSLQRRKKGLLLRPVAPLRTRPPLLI
The experiment in a line: pull-down; GST fusion proteins or GST alone incubated with lysates of MCF7 cells transfected with siCT or siHook2 for 3 days; immunoblot; only the target purified.

In test [2] the target is T3, GST-PAR6α Nter K19A (human) (UniProt Q9NPB6).
T3 sequence: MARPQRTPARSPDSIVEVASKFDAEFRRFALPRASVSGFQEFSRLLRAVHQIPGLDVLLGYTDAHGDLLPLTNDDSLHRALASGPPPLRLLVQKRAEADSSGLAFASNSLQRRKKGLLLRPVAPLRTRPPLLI
The test is described as above.

In test [3] the target is T4, human Hook2 Cter (amino acids 438 to 719), LexA two-hybrid bait (human) (UniProt Q96ED9).
T4 sequence: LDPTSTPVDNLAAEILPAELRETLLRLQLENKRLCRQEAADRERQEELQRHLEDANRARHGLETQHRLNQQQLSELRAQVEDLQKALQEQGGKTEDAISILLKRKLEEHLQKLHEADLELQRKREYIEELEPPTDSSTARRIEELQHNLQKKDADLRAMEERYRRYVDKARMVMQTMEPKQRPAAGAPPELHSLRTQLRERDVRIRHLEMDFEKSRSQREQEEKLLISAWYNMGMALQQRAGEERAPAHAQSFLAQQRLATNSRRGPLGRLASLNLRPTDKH
Nature of the test: two-hybrid; L40 yeast, LexA system; Hook2 Cter in pBTM116 as bait, PAR6α variants in pACT2; selection without tryptophan, leucine and histidine with 10 mM and 5 mM 3-aminotriazole; second selection on X-Gal medium.

The target in test [4] is T5, endogenous human Hook2 (HEK cells) (human (endogenous in HEK)) (UniProt Q96ED9).
T5 sequence: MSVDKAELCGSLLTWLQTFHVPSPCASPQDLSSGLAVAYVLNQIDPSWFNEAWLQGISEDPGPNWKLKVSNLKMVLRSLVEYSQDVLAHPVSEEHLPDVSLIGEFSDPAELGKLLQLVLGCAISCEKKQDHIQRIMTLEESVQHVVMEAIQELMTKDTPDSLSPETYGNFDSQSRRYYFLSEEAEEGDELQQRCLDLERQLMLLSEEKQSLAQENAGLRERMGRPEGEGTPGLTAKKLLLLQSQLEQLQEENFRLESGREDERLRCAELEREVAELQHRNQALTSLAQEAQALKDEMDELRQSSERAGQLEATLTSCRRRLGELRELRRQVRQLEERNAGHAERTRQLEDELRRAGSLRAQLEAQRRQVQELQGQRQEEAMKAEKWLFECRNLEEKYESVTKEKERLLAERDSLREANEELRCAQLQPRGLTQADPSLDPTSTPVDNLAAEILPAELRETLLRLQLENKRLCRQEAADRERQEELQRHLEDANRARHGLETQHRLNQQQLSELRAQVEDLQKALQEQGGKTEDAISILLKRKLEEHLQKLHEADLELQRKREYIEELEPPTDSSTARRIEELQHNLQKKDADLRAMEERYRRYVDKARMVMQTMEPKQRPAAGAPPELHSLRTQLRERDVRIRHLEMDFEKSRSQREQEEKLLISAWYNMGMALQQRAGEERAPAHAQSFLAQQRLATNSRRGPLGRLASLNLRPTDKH
Nature of the test: co-IP; HEK cells transiently transfected with HA::PAR6α and/or human Hook2, lysed after one day; immunoprecipitation with mouse anti-HA or rat anti-Hook2, immunoblot with rabbit anti-Hook2 and anti-HA.

The target of test [5] is T6, human Hook2 (overexpressed) (human) (UniProt Q96ED9).
T6 sequence: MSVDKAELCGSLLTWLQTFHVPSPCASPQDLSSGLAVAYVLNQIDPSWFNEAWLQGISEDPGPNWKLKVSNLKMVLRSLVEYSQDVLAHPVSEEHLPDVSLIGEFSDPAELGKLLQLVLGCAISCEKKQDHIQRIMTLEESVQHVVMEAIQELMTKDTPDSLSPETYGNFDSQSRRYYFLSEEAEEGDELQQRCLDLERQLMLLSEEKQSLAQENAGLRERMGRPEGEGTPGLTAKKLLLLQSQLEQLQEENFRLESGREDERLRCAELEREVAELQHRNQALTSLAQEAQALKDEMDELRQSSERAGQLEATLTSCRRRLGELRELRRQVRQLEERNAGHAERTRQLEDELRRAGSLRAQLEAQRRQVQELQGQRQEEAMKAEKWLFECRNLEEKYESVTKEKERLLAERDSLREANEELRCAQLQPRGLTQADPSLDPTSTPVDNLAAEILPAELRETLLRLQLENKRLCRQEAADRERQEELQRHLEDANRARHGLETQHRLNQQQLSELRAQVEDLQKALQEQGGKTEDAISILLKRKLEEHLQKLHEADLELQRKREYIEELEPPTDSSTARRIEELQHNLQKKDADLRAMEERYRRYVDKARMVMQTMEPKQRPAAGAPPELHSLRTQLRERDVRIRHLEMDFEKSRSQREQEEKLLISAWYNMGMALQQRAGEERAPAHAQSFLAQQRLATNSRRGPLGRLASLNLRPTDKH
The description is as above.

B1: human Hook2 (overexpressed) (protein, UniProt Q96ED9 1-719)
chain: MSVDKAELCGSLLTWLQTFHVPSPCASPQDLSSGLAVAYVLNQIDPSWFNEAWLQGISEDPGPNWKLKVSNLKMVLRSLVEYSQDVLAHPVSEEHLPDVSLIGEFSDPAELGKLLQLVLGCAISCEKKQDHIQRIMTLEESVQHVVMEAIQELMTKDTPDSLSPETYGNFDSQSRRYYFLSEEAEEGDELQQRCLDLERQLMLLSEEKQSLAQENAGLRERMGRPEGEGTPGLTAKKLLLLQSQLEQLQEENFRLESGREDERLRCAELEREVAELQHRNQALTSLAQEAQALKDEMDELRQSSERAGQLEATLTSCRRRLGELRELRRQVRQLEERNAGHAERTRQLEDELRRAGSLRAQLEAQRRQVQELQGQRQEEAMKAEKWLFECRNLEEKYESVTKEKERLLAERDSLREANEELRCAQLQPRGLTQADPSLDPTSTPVDNLAAEILPAELRETLLRLQLENKRLCRQEAADRERQEELQRHLEDANRARHGLETQHRLNQQQLSELRAQVEDLQKALQEQGGKTEDAISILLKRKLEEHLQKLHEADLELQRKREYIEELEPPTDSSTARRIEELQHNLQKKDADLRAMEERYRRYVDKARMVMQTMEPKQRPAAGAPPELHSLRTQLRERDVRIRHLEMDFEKSRSQREQEEKLLISAWYNMGMALQQRAGEERAPAHAQSFLAQQRLATNSRRGPLGRLASLNLRPTDKH
Regarding B1, the binding result with human HA-PAR6α (human) is listed as “binds”.

B2: endogenous Hook2 (MCF7 cells) (protein, UniProt Q96ED9 1-719)
chain: MSVDKAELCGSLLTWLQTFHVPSPCASPQDLSSGLAVAYVLNQIDPSWFNEAWLQGISEDPGPNWKLKVSNLKMVLRSLVEYSQDVLAHPVSEEHLPDVSLIGEFSDPAELGKLLQLVLGCAISCEKKQDHIQRIMTLEESVQHVVMEAIQELMTKDTPDSLSPETYGNFDSQSRRYYFLSEEAEEGDELQQRCLDLERQLMLLSEEKQSLAQENAGLRERMGRPEGEGTPGLTAKKLLLLQSQLEQLQEENFRLESGREDERLRCAELEREVAELQHRNQALTSLAQEAQALKDEMDELRQSSERAGQLEATLTSCRRRLGELRELRRQVRQLEERNAGHAERTRQLEDELRRAGSLRAQLEAQRRQVQELQGQRQEEAMKAEKWLFECRNLEEKYESVTKEKERLLAERDSLREANEELRCAQLQPRGLTQADPSLDPTSTPVDNLAAEILPAELRETLLRLQLENKRLCRQEAADRERQEELQRHLEDANRARHGLETQHRLNQQQLSELRAQVEDLQKALQEQGGKTEDAISILLKRKLEEHLQKLHEADLELQRKREYIEELEPPTDSSTARRIEELQHNLQKKDADLRAMEERYRRYVDKARMVMQTMEPKQRPAAGAPPELHSLRTQLRERDVRIRHLEMDFEKSRSQREQEEKLLISAWYNMGMALQQRAGEERAPAHAQSFLAQQRLATNSRRGPLGRLASLNLRPTDKH
For the molecule B2, the binding result in test [1] is reported as “binds”; in test [2], “no binding”.

B3: human PAR6α PDZ, two-hybrid prey (domain or fragment, UniProt Q9NPB6 157-250)
chain: RVRLHKHGSDRPLGFYIRDGMSVRVAPQGLERVPGIFISRLVRGGLAESTGLLAVSDEILEVNGIEVAGKTLDQVTDMMVANSHNLIVTVKPAN
Turning to B3, in test [3], the binding result is “no binding”.

B4: human HA-PAR6α (protein, UniProt Q9NPB6 1-346)
chain: MARPQRTPARSPDSIVEVKSKFDAEFRRFALPRASVSGFQEFSRLLRAVHQIPGLDVLLGYTDAHGDLLPLTNDDSLHRALASGPPPLRLLVQKRAEADSSGLAFASNSLQRRKKGLLLRPVAPLRTRPPLLISLPQDFRQVSSVIDVDLLPETHRRVRLHKHGSDRPLGFYIRDGMSVRVAPQGLERVPGIFISRLVRGGLAESTGLLAVSDEILEVNGIEVAGKTLDQVTDMMVANSHNLIVTVKPANQRNNVVRGASGRLTGPPSAGPGPAEPDSDDDSSDLVIENRQPPSSNGLSQGPPCWDLHPGCRHPGTRSSLPSLDDQEQASSGWGSRIRGDGSGFSL
Turning to B4, the binding entry in test [4] and in test [5] was “binds” throughout.

B5: human PAR6α WT, two-hybrid prey (protein, UniProt Q9NPB6 1-346)
chain: MARPQRTPARSPDSIVEVKSKFDAEFRRFALPRASVSGFQEFSRLLRAVHQIPGLDVLLGYTDAHGDLLPLTNDDSLHRALASGPPPLRLLVQKRAEADSSGLAFASNSLQRRKKGLLLRPVAPLRTRPPLLISLPQDFRQVSSVIDVDLLPETHRRVRLHKHGSDRPLGFYIRDGMSVRVAPQGLERVPGIFISRLVRGGLAESTGLLAVSDEILEVNGIEVAGKTLDQVTDMMVANSHNLIVTVKPANQRNNVVRGASGRLTGPPSAGPGPAEPDSDDDSSDLVIENRQPPSSNGLSQGPPCWDLHPGCRHPGTRSSLPSLDDQEQASSGWGSRIRGDGSGFSL
B5: the binding entry in test [3] was “binds”.
